# The other results are listed elsewhere or left out.
# Molecular target: T1, OsWOX13 (Oryza sativa, UniProt Q5QMM3 1-267)
# T1 sequence: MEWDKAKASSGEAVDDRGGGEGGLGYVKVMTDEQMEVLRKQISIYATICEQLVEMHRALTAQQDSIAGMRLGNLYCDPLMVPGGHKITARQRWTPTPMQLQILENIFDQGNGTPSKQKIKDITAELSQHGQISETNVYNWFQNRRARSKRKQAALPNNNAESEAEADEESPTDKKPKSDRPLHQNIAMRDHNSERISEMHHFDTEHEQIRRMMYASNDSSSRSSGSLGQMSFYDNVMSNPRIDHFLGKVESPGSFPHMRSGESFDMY
# Test: protein-binding microarray (RPBM); PBS, 2% BSA, 51.3 ng/ul salmon testes DNA, 50 uM zinc acetate, 200 nM TF, 25 C, 1 h; high values mean tight binding
# Settings: protein: recombinant; tags: N-terminal polyhistidine and DsRed monomer fusion (pET32a); label: CyDye5-dUTP incorporated in the synthesized complementary strand; 3' TTTTT single-stranded linker to array surface; dsDNA, one strand shown
# In short: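 Ni–NTA purification followed expression in E. coli BL21-CodonPlus of transcription factors fused N-terminally to a polyhistidine tag and DsRed. At 200 nM in PBS with 2% BSA, salmon testes DNA and 50 µM zinc acetate, the protein was incubated for 1 h at 25 °C with a custom Agilent array that had been primer-extended with Cy5-dUTP and blocked with 2% BSA. After washing, the array was read on an Axon 4000B scanner. The binding signal is per-feature fluorescence intensity in arbitrary units.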
row,Sequence,binding signal
1,GTATAATCACTAATTGATTAGATTCAAACTGTTGAATTGACGGAGTCACCTAGTGCAG,43900 fluorescence intensity (a.u.)
2,CCGGCTGATCGAATAATTTGCCGACGAAATCGACCACGCTCGGAGTCACCTAGTGCAG,3330 fluorescence intensity (a.u.)
3,GGTAATTACAATGTACATGAATGCAATTATGGAGTGAAAACGGAGTCACCTAGTGCAG,13500 fluorescence intensity (a.u.)
4,AACTAAACATAATCTTTGAAAAGTTTGATTTTGAACACGGCGGAGTCACCTAGTGCAG,6770 fluorescence intensity (a.u.)
5,ATGCTCATACTGATTATCCAATCACTGATCTACTCCAAATCGGAGTCACCTAGTGCAG,21200 fluorescence intensity (a.u.)
6,AAATGCACTCTTTTCATTTCACCTAGACACAACCTAGTTTCGGAGTCACCTAGTGCAG,44800 fluorescence intensity (a.u.)
7,TACACTAATTAATTAAGCATTAATCGTGGGAAGAGTAACGCGGAGTCACCTAGTGCAG,47000 fluorescence intensity (a.u.)
8,CCATCCGCCCCAGATTTATCAATTACTCCTCGTCATCTCGCGGAGTCACCTAGTGCAG,5510 fluorescence intensity (a.u.)
9,CTTAATTACCGGCCGGTTCGAAACAATTTGATTTGATCCCCGGAGTCACCTAGTGCAG,20600 fluorescence intensity (a.u.)
10,TCTGATTAGGTAGGTAGCAAACGGACGATCATTTGGACCGCGGAGTCACCTAGTGCAG,44000 fluorescence intensity (a.u.)
11,TTTTATGATTGATTTGGCACCACTGCTACAATAATGCATCCGGAGTCACCTAGTGCAG,27400 fluorescence intensity (a.u.)
12,TAAAATTTAATTAATTATGTGTTAATCTATCGCTCCGTTTCGGAGTCACCTAGTGCAG,46800 fluorescence intensity (a.u.)
13,CTATTAAATTAGCTATAGATAAATTAAAGCTAGCAGTAGGCGGAGTCACCTAGTGCAG,40300 fluorescence intensity (a.u.)
14,GCCGTCAATCAAAGCAGAGGCCCAGCTACATAACTGGGCTCGGAGTCACCTAGTGCAG,20100 fluorescence intensity (a.u.)
15,ACTAAGCTTCAATCTGCCATCATCATGGATATGATCATTGCGGAGTCACCTAGTGCAG,3920 fluorescence intensity (a.u.)
16,TGCGTTTCTCAAATTATACAAGTCATGATGGATATGTCGTCGGAGTCACCTAGTGCAG,3460 fluorescence intensity (a.u.)
17,ATGATAGATTACATATTTACAGTGATTAAGCATAGCATTACGGAGTCACCTAGTGCAG,39300 fluorescence intensity (a.u.)
18,AATAATTAATTCATTTGTTTATACACTTAAATAGCTAATACGGAGTCACCTAGTGCAG,40500 fluorescence intensity (a.u.)
19,TATATTATGATTTATTTTAGAAAATACCAGATACTAAGAGCGGAGTCACCTAGTGCAG,5780 fluorescence intensity (a.u.)
20,GAGTAATTGCTTATTATACTATTAATATATGGTCACACCTCGGAGTCACCTAGTGCAG,48100 fluorescence intensity (a.u.)
21,CAACTTAATTTTATCTATGCAACCTTATGGTCAAATCTGTCGGAGTCACCTAGTGCAG,7480 fluorescence intensity (a.u.)
22,TTATCTACTGCAAATTTGTAAATTACCATGACAAGCCGACCGGAGTCACCTAGTGCAG,4430 fluorescence intensity (a.u.)
23,ATAAAATTACATATGTAGTTTTAGTGTATTTACCATGTGACGGAGTCACCTAGTGCAG,5300 fluorescence intensity (a.u.)
24,AATAATTTTATTTACATACACAGGAAACTAAAATTTTCTACGGAGTCACCTAGTGCAG,3200 fluorescence intensity (a.u.)
25,TGCTTCAATTATCCAGCTTTGGAAACTCGCTGTTTGTTTCCGGAGTCACCTAGTGCAG,4980 fluorescence intensity (a.u.)
26,GTGGATTCAAATGGATTAGTTAAACTGGCAGATTTTGGGCCGGAGTCACCTAGTGCAG,4510 fluorescence intensity (a.u.)
27,AGTACTTAATTTAGTCCCACGTACATTTAACTATTAACCGCGGAGTCACCTAGTGCAG,7620 fluorescence intensity (a.u.)

row,Sequence,binding signal
1,AACTAATATAATTTCTATTTTCATATGAATTAGTAAAATTCGGAGTCACCTAGTGCAG,5040 fluorescence intensity (a.u.)
2,TGCTATCCAAAGACTCTAATTGACGATGAACTTGCAGTTTCGGAGTCACCTAGTGCAG,9330 fluorescence intensity (a.u.)
3,TTTGATTGTGGTTATTGCACTGAAATTTTACAGATATTGTCGGAGTCACCTAGTGCAG,31800 fluorescence intensity (a.u.)
4,CACCACTCAAGATGCTCTGATTGGGCCATTGTGGTGTATGCGGAGTCACCTAGTGCAG,16800 fluorescence intensity (a.u.)
5,TGAAGTACTAATCACATCTATCACCTCATTCAATGAGTAACGGAGTCACCTAGTGCAG,8110 fluorescence intensity (a.u.)
6,TTGTAATAACTGTTAGAGCAGTGAATTACTACCATTTGTCCGGAGTCACCTAGTGCAG,3300 fluorescence intensity (a.u.)
7,CGTCCAATCAAAATGATTCATCAAATCCTACACGTTGGTGCGGAGTCACCTAGTGCAG,36600 fluorescence intensity (a.u.)
8,TTCGATCCTGACTGGAATTGGATGCCTAGTTTGCCTTGCCCGGAGTCACCTAGTGCAG,4190 fluorescence intensity (a.u.)
9,GATTGATGGACGGCTCAGATTGTTCTTGCGCCGGTAAAGTCGGAGTCACCTAGTGCAG,23300 fluorescence intensity (a.u.)
10,CTTCCTAATTGCAGTAGAAACACTTGCTTTCACATATTTCCGGAGTCACCTAGTGCAG,8170 fluorescence intensity (a.u.)
11,CTACTGATTGTATTGATTGGGTAGCTGGATTGAAGTTAATCGGAGTCACCTAGTGCAG,57000 fluorescence intensity (a.u.)
12,ATTAAATTTTAGACGATACTATCTTGTCCAATTACTCATACGGAGTCACCTAGTGCAG,6840 fluorescence intensity (a.u.)
13,CCTTTATATCATTATTTACATTGGACATATAGTCGATTGCCGGAGTCACCTAGTGCAG,3240 fluorescence intensity (a.u.)
14,TGGAATTGTATTGGCTGATAGATACATACCATTTCTAACTCGGAGTCACCTAGTGCAG,9180 fluorescence intensity (a.u.)
15,TTGTGTTGATGGATGATGCGATATCCTCTTCAGTGAATGCCGGAGTCACCTAGTGCAG,8900 fluorescence intensity (a.u.)
16,AGATTGATTAGTACCACCTCGGCTAGCGGAGGAAGGGCACCGGAGTCACCTAGTGCAG,40500 fluorescence intensity (a.u.)
17,GTTAATAATTTCACCGGACTTTATATATCTACTCCTTCGCCGGAGTCACCTAGTGCAG,7960 fluorescence intensity (a.u.)
18,ATGCTTTGATTGAAATCAAGTACTCTGAAGCTAGTCATTCCGGAGTCACCTAGTGCAG,56700 fluorescence intensity (a.u.)
19,CGTGCAGATTGGACAAAGCTAGCTACTACCACCGTCGCAACGGAGTCACCTAGTGCAG,7640 fluorescence intensity (a.u.)
20,TCGGACTAAATATTGACTTAGACTGCAAGTTGTAATCGTTCGGAGTCACCTAGTGCAG,4390 fluorescence intensity (a.u.)
21,ATCGTGATGGACTGATGGCTTCGTGTTCGCTGGGACCGGCCGGAGTCACCTAGTGCAG,20900 fluorescence intensity (a.u.)
22,CGATTATTCGTTCCATCATGATTGGGGTAGGTTAGTTAGGCGGAGTCACCTAGTGCAG,5540 fluorescence intensity (a.u.)
23,ATGACATATTGATGTGATAGAAAATGACGGAAGTTTGAATCGGAGTCACCTAGTGCAG,15400 fluorescence intensity (a.u.)
24,TGCATAAGTGTTAAATTGACAGCCACTTGGTCTGTTCGTTCGGAGTCACCTAGTGCAG,21700 fluorescence intensity (a.u.)
25,GGTCGGGCCGCATTGATTGCACATCTTGTCCTCATGCCTTCGGAGTCACCTAGTGCAG,5260 fluorescence intensity (a.u.)
26,CCTTGAACATGTGAGTGACAATTAAGGGAGACATTGATCTCGGAGTCACCTAGTGCAG,4520 fluorescence intensity (a.u.)
27,GCACCAATCATCATATATATGATATCTCAGTACGACAGATCGGAGTCACCTAGTGCAG,13200 fluorescence intensity (a.u.)

# From PMC7819943, “Rice protein-binding microarrays: a tool to detect cis-acting elements near promoter regions in rice”
